# Laboratory results: PubChem BioAssay AID493208 (National Center for Advancing Translational Sciences (NCATS), 2011)
# In all, about 44,000 compounds went through this assay and about 340 (0.77%) were called active. Inconclusive results (about 5%) are left out. Calls come from the whole dose curve; as a rule, active = well fitted inhibition curve with a large enough effect; inconclusive = small, poorly fitted or top-dose-only effect; inactive = flat fitted curve, though single readings scatter. Some of the results follow.
# Test: Acumen qHTS Assay for Inhibitors of the mTORC1 Signaling Pathway in MEF (Tsc2-/-, p53-/-) Cells: Sytravon;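 note: plate controls were DMSO for no effect and rapamycin for full effect; nearly all actives have a fitted effect of over 50% in size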
# Conditions: phospho-rpS6 immunofluorescence/PI, 24 h; series mostly up to 38.3 µM; activity change, negative = inhibition: at the top concentration
# Method in brief: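 Immunofluorescence of rpS6 phosphorylation in Tsc2-/-, p53-/- MEFs after 24 h compound exposure, normalized to propidium iodide signal. Activity is expressed as % positive cells, thresholded with 7.5 nM rapamycin.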
row,Structure (SMILES),"activity change, negative = inhibition"
1,COc1cccc(N2C(=O)N(CC(=O)NCc3cccc(OC)c3OC)c3ccccc3S2(=O)=O)c1,inactive: -1%
2,COc1cccc(C2C(C(=O)Nc3ccccc3OC)=C(C)Nc3nc4ccccc4n32)c1 (stereo not given),inactive: -27%
3,CCc1ccccc1Nc1ncnc2c1nc1n2CCCC1,inactive: 5.72%
4,O=C(Nc1ccc(F)cc1)c1cccn1-c1nnc(N2CCCCC2)s1,inactive: 0.981%
5,COc1ccccc1N1CCN(C(=O)CCS(=O)(=O)c2cc(Br)cc3c2N(C(=O)C2CC2)CC3)CC1,inactive: -11.1%
6,CCOC(=O)c1c(C)oc2nc(C)nc(N3CCN(c4ccccc4)CC3)c12,inactive: 2.26%
7,O=C(CSc1nnc(CNC(=O)c2ccccc2)n1-c1cccc(Cl)c1)Nc1ccccc1F,inactive: 1.23%
8,COc1ccc2oc(=O)c(C(=O)NCCc3c(C)[nH]c4ccc(Br)cc34)cc2c1,inactive: -7.15%
9,CCCNC(=O)c1cnc2sc(N3CCCCC3)nn2c1=O,inactive: 6.1%
10,Cc1cn2c(=O)cc(COc3ccccc3NC(=O)c3ccccc3C)nc2s1,inactive: 2.92%
11,Cc1ccc(-c2csc(/C(C#N)=C/c3ccccc3Cl)n2)cc1,inactive: -2.86%
12,O=C(NCc1cccc(F)c1)C1CCN(C(=O)c2sccc2-n2cccc2)CC1,inactive: -0.881%
13,O=C(Nc1cc(NC(=O)c2ccccc2Cl)ccc1Cl)c1ccccc1,inactive: 3.16%
14,CCOc1ccccc1CNC(=O)c1ccc2nc(Cc3ccc(OC)cc3)oc2c1,inactive: -2.12%
15,COc1ccc(CNC(=O)c2ccc(Cn3c(=O)c4cccn4c4cccnc43)cc2)cc1OC,inactive: -22.2%
16,COc1ccc(N2CCN(C(=O)CCNS(=O)(=O)c3ccc4c(c3)CCN4C(=O)C3CC3)CC2)cc1,inactive: -16.5%
17,CCOCCCNC(=O)NC(CCC(C)C)c1c(-n2cccc2)sc2c1CCN(C)C2 (stereo not given),inactive: -13.2%
18,CCc1ccc(NC(=O)CSc2cn(CC(=O)N3CCCC3)c3ccccc23)cc1,inactive: -3.92%
19,Cc1ccc(OCC(=O)Nc2ccc(S(=O)(=O)Nc3ncccn3)cc2)c(C(C)(C)C)c1,inactive: 12.3%
20,CN1CCN(CCCNC(=O)c2cnn(-c3ccccc3)c2-n2cccc2)CC1,inactive: -0.669%

row,Structure (SMILES),"activity change, negative = inhibition"
1,O=c1c2sc3ccccc3c2n(Cc2cccc(C(F)(F)F)c2)c(=O)n1Cc1ccco1,inactive: 1.06%
2,Cc1ccc(C)c(-c2nc(Cn3c(=O)cc(-c4ccccc4)c4c(C)nn(C)c43)c(C)o2)c1,inactive: -8.49%
3,CC(C)(C)C(=O)CSc1nc2ccsc2c(=O)n1Cc1ccccc1F,inactive: -2.23%
4,CCOc1ccc(NC(=O)Cn2cc(C(=O)c3ccc(CC)cc3)c(=O)c3cc(C)ccc32)cc1,inactive: 6.47%
5,COc1cccc(-c2nc(SCc3cc(=O)c4ccc(C)c(C)c4[nH]3)n[nH]2)c1,inactive: 0%
6,Cc1ccc(Cc2nc3ccccc3nc2SCC(=O)NCCC(C)C)cc1,inactive: -3.55%
7,COc1ccc(NC(=O)c2csc3c2CCCCC3)cc1,inactive: -9.72%
8,Cc1ccc(Cc2c(C)nc3nc(SCC(=O)NC(C)c4ccccc4)nn3c2C)cc1 (stereo not given),inactive: 2.15%
9,CCCN(C(=O)c1nn(-c2ccc(OC)cc2)c(=O)c2c1c1ccccc1n2C)c1ccc(CC)cc1,inactive: 2.47%
10,COc1ccc(S(=O)(=O)c2nnn(-c3cc(Cl)c(OC)cc3OC)c2C)cc1,inactive: -19%
11,CCOCCCn1c(SCC(=O)Nc2ccc(C(C)C)cc2)nc2c(sc3ccccc32)c1=O,inactive: -0.182%
12,O=C(CSc1nc2c([nH]c3ccccc32)c(=O)n1-c1ccc(F)cc1)NCc1ccccc1,inactive: -13.1%
13,Cn1c(=O)c2c(-c3ccccc3)n3c4ccccc4nc(-c4ccccc4)c3c2n(C)c1=O,inactive: -1.47%
14,COC(=O)c1cc2occc2n1Cc1nc(-c2ccccc2F)oc1C,inactive: 0.886%
15,COc1ccc(C(=O)NCC(c2cccnc2)N2CCc3ccccc3C2)cc1OC (stereo not given),inactive: 6.6%
16,CCn1c(=O)c2cc(C(=O)Nc3cc(F)ccc3F)sc2c2ccccc21,inactive: -11.7%
17,O=C(Nc1cccc(-c2nc3cc(Cl)ccc3o2)c1)c1cc([N+](=O)[O-])ccc1N1CCOCC1,inactive: 1.12%
18,COc1ccc(CN2C(=O)c3oc4ccccc4c(=O)c3C2c2ccc(O)cc2)cc1 (stereo not given),inactive: -0.943%
19,O=C(Cn1cnc2c(oc3ccccc32)c1=O)Nc1ccccc1C(F)(F)F,inactive: 5.38%
20,COc1ccc(OC)c(NC(=O)CN(C)S(=O)(=O)c2ccc(C(=O)N3CCOCC3)s2)c1,inactive: 0%

row,Structure (SMILES),"activity change, negative = inhibition"
1,COc1ccccc1NC(=O)Cn1c(=O)n(Cc2ccccc2)c(=O)c2sc3ccccc3c21,inactive: 2.93%
2,Cc1ccc(-c2nnc(Nc3cccc(Cl)c3)c3ccccc23)cc1S(=O)(=O)N1CCOCC1,inactive: 6.97%
3,COc1ccc(C)cc1NC(=O)N(Cc1ccc(C)o1)C1CCN(C(C)=O)CC1,inactive: -8.58%
4,Cc1cc(C)c(NC(=O)CSc2nc3ccccc3nc2N2CCCCC2)c(C)c1,inactive: -10.2%
5,O=C(NCc1cccc(Cl)c1)c1cc2ccc3cccnc3c2[nH]1,inactive: -4.6%
6,CC(C)COc1ccc(C(=O)Nc2ccc(S(=O)(=O)Nc3ncccn3)cc2)cc1,inactive: -14%
7,CCC(C(=O)Nc1cccc(Cl)c1C)n1nc(-c2ccc(C)cc2)ccc1=O (stereo not given),inactive: -12%
8,CCCc1nc2sc3c(N4CCC(C)CC4)ncnc3c2c2c1CCCC2,inactive: -2.66%
9,CC(C)COc1cccc(C(=O)Nc2ccc(-c3nc4ncccc4o3)cc2)c1,inactive: 2.82%
10,CC1CCN(C(=O)Cn2cc(SCC(=O)NCc3ccccc3Cl)c3ccccc32)CC1,inactive: -14.9%
11,CCC(=O)Nc1cc(C)c(O)c(-c2nc3ncccc3o2)c1,inactive: -1.34%
12,Cc1cccc(N2CCN(S(=O)(=O)c3ccc4c(c3)CCCN4C(=O)C3CCC3)CC2C)c1 (stereo not given),inactive: 0.128%
13,Cc1ccc(Cl)cc1NC(=O)C(C)n1nnc2sc3c(c2c1=O)CCCC3 (stereo not given),inactive: 4.52%
14,Cn1c(=O)n(-c2ccc(Br)cc2F)c(=O)c2sc3ccccc3c21,inactive: 0.425%
15,COc1ccc(Cn2c(=O)[nH]c3cc(C(=O)N4CCN(c5cccc(Cl)c5)CC4)ccc3c2=O)cc1,inactive: 9.08%
16,CCCN1C(C(=O)c2ccccc2)=C(OC(=O)COc2ccccc2)c2ccccc2S1(=O)=O,inactive: -12%
17,O=C(NC1CCCCCC1)c1ccc2c(c1)sc1nc(-c3ccc(F)cc3)cn12,inactive: -15.9%
18,CCOc1ccc(NC(=O)CN2C(=O)C(c3ccccc3)=NC23CCC(C)CC3)cc1 (stereo not given),inactive: -2.29%
19,CCOC(=O)c1ccc(CN(Cc2ccc(F)cc2)S(=O)(=O)c2cc(C(=O)Nc3cccc(C(F)(F)F)c3)ccc2F)cc1,inactive: 12.7%
20,COc1cc2c(=O)c(S(=O)(=O)c3ccc(F)cc3)cn(Cc3ccc(Cl)cc3)c2cc1OC,inactive: -11.8%
